Patent publication US20190359732A1 (Memorial Sloan Kettering, published 2019)

Target: T1, CD3 on human T cells (human, UniProt P07766; P09693; P04234)
T1 construct: also called CD3+ T cells
Test: FACS on CD3+ T cells; reference huOKT3

- fold less binding than huOKT3: > 20 fold
B1: HER2-BsAb (HER2/CD3 bispecific binding molecule, IgG-scFv format) (bispecific antibody)
heavy: [about 450 residues with a human IgG1 Fc left out here]
light: [about 200 residues left out here]TSGGGGSGGGGSGGGGSQVQLVQSGGGVVQPGRSLRLSCKASGYTFTRYTMHWVRQAPGKGLEWIGYINPSRGYTNYNQKFKDRFTISRDNSKNTAFLQMDSLRPEDTGVYFCARYYDDHYCLDYWGQGTPVTVSSGGGGSGGGGSGGGGSDIQMTQSPSSLSASVGDRVTITCSASSSVSYMNWYQQTPGKAPKRWIYDTSKLASGVPSRFSGSGSGTDYTFTISSLQPEDIATYYCQQWSSNPFTFGQGTKLQITR
notes: also called HER2/CD3 bispecific antibody
